# Measured values published in the supplement of paper PMC4166925.
# ± gives the standard deviation of the averaged measurements. The full ranking holds about 33,000 sequences; the median of “E-score (dimensionless, -0.5 to 0.5)” is about -0.049, and the highest 2% start at about 0.37. The list shows a part of the results.
# Tested on: T1, PmTbr T-box DNA-binding domain (GST fusion)
# T1 sequence: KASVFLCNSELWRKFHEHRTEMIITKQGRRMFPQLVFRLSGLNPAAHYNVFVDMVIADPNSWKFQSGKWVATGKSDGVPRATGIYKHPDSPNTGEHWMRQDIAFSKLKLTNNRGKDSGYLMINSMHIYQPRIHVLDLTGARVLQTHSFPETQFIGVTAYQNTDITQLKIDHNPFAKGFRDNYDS
# Assay: PBM E-score of 8-mer (E-score (dimensionless, -0.5 to 0.5)); Tbr is Tbrain of the sea star Patiria miniata (Pm) or the sea urchin Strongylocentrotus purpuratus (Sp); higher = stronger binding preference; most listed sequences are background and not binding sites
# Details: the construct has about 5 more residues each side
# Procedure, shortened: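 Each ungapped 8-mer received an enrichment E-score from the Universal PBM Analysis Suite, averaged over duplicate arrays. The proteins were Tbr T-box DNA-binding domains, covering the whole T-box plus about five flanking residues, fused to GST and expressed in BL21 E. coli at 20 °C before glutathione affinity purification. Universal Agilent oligonucleotide arrays were made double-stranded by primer extension and incubated with 200 nM protein in PBS (pH 7.5). The arrays were then scanned and quantified, and every 8-mer was scored from probe intensities.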
row,Sequence,PBM E-score of 8-mer
1,AATTTACT,-0.162 ± 0.059
2,AGACCGCC,-0.174 ± 0.068
3,CCCGGACG,-0.193 ± 0.045
4,ATCACCAA,0.17 ± 0.016
5,ATCCCACC,0.224 ± 0.0037
6,CGCATTTA,0.156 ± 0.015
7,CCCAGAGG,-0.0696 ± 0.0034
8,ATCCGAAG,-0.183 ± 0.031
9,AGGCGCAA,0.2862 ± 0.00067
10,TTCCGCAA,-0.0153 ± 0.014
11,ATATCCCG,-0.208 ± 0.061
12,CATAGTAC,-0.153 ± 0.047
13,GGTTCCGA,-0.27 ± 0.02
14,GAACCCTC,-0.247 ± 0.055
15,CGAACTAG,0.133 ± 0.031
16,CAGTTTCA,0.0662 ± 0.076
17,CGTCTATC,-0.284 ± 0.0085
18,CTTGTAGA,-0.126 ± 0.089
19,GTACCCAC,0.0586 ± 0.07
20,GTAACATA,-0.0543 ± 0.019
21,GTTTGCTA,-0.00402 ± 0.0046
22,CCACTATC,0.174 ± 0.049

row,Sequence,PBM E-score of 8-mer
1,GAACTTAA,-0.0678 ± 0.014
2,TTAACGAA,0.0793 ± 0.059
3,AGGCACGC,0.0549 ± 0.064
4,CTTCCGCC,-0.0413 ± 0.025
5,ATCATTGA,-0.0331 ± 0.14
6,GTATGACA,0.18687 ± 7.1e-05
7,ATGAGAGC,-0.247 ± 0.086
8,TACGTCAA,-0.229 ± 0.025
9,CCTGAGCG,-0.106 ± 0.02
10,AACTAATG,-0.119 ± 0.078
11,ACCATTAA,-0.0404 ± 0.015
12,ATTCCTTA,-0.236 ± 0.046
13,AACCCAGA,0.0359 ± 0.041
14,AACGGTGT,0.242 ± 0.066
15,GCAGTGAA,0.022 ± 0.013
16,CACACATA,0.365 ± 0.021
17,CAGTACTC,0.0138 ± 0.039
18,CTGTGCAA,-0.283 ± 0.027
19,CCGTGACC,-0.0636 ± 0.13
20,AGGCTCTC,-0.174 ± 0.016
21,CCCTAGTC,0.000385 ± 0.0004
22,GAAGGCTC,-0.203 ± 0.036

row,Sequence,PBM E-score of 8-mer
1,CTGACGCA,0.0742 ± 0.014
2,CCACCGTA,-0.0252 ± 0.013
3,TCTTCGAA,-0.0666 ± 0.028
4,CTAAGAAC,-0.0569 ± 0.022
5,CACATGAA,0.0841 ± 0.0091
6,ATAAGAAC,-0.0365 ± 0.043
7,CAGCACGG,0.00459 ± 0.12
8,ACGAGTAG,-0.255 ± 0.006
9,AACTTATA,-0.129 ± 0.0057
10,ATCAGCGG,-0.0604 ± 0.051
11,AATTTGCC,-0.0125 ± 0.015
12,CTTCGACC,-0.308 ± 0.016
13,ATACCAAT,-0.119 ± 0.021
14,GATTAGCC,-0.193 ± 0.061
15,CAATGCCG,-0.241 ± 0.057
16,TATTCTCA,0.245 ± 0.031
17,AAATACGG,0.0698 ± 0.0049
18,CCGTCAAG,0.0946 ± 0.031
19,CAACGGGG,-0.016 ± 0.055
20,ATCACCAT,0.155 ± 0.014
21,AACAATAA,0.0426 ± 0.025
22,CATTTAAC,0.171 ± 0.02

row,Sequence,PBM E-score of 8-mer
1,CCCAAGGA,-0.107 ± 0.058
2,CTCGCCAC,0.323 ± 0.017
3,ATTCACCG,-0.106 ± 0.027
4,GTATCGAC,0.069 ± 0.053
5,GCAACACA,0.311 ± 0.0054
6,AACCATGT,0.183 ± 0.045
7,ACCGAATG,-0.119 ± 0.0097
8,AGTCTAAC,-0.0883 ± 0.064
9,AAACGCCG,0.0335 ± 0.0096
10,GAGAGGGC,0.049 ± 0.037
11,ACCTCTGA,0.0725 ± 0.053
12,CGAGATGA,-0.0792 ± 0.026
13,CCCCTGGC,-0.00462 ± 0.029
14,CAGTGAAG,0.0395 ± 0.054
15,AACCTGGC,0.195 ± 0.038
16,ATCTTGGG,-0.12 ± 0.0014
17,GACTAATC,-0.123 ± 0.012
18,GTCCCAAC,-0.193 ± 0.074
19,GTAGAGTA,-0.1984 ± 0.0017
20,GGTCACAA,0.212 ± 0.048
21,CAAGGTGC,0.4331 ± 0.00078
22,ACTAATTC,-0.0699 ± 0.029

row,Sequence,PBM E-score of 8-mer
1,GATGCATC,-0.166 ± 0.041
2,AAAGGCCC,-0.345 ± 0.0035
3,AGCATTCA,-0.156 ± 0.026
4,ATCCATAA,-0.202 ± 0.035
5,AGTGATTC,0.135 ± 0.092
6,ACGGTAAT,-0.0598 ± 0.011
7,ACATCAGA,-0.216 ± 0.047
8,AGACGTGC,0.0669 ± 0.017
9,AGCCTGTA,-0.214 ± 0.078
10,GCGTAAGA,-0.0611 ± 0.0097
11,AACGGAGG,0.0408 ± 0.056
12,GACTACCC,-0.11 ± 0.006
13,AATAGGCG,0.224 ± 0.0023
14,AAAATCCA,-0.261 ± 0.046
15,AACTCTGT,-0.0925 ± 0.011
16,CGCCTACC,0.169 ± 0.044
17,ACCATCAC,0.209 ± 0.012
18,GCGAACTA,0.135 ± 0.051
19,AGCATTGC,-0.192 ± 0.046
20,CGACCGGC,-0.00745 ± 0.037
21,GGGTACAA,-0.346 ± 0.018
22,CGGCAAAG,-0.197 ± 0.0097
